Measured values as given in the supplement of paper PMC3334620.
Whole data set: some 33,000 sequences, median “E-score (-0.5 to 0.5)” near -0.056, cut for the highest 2% near 0.38. Some of the results follow.

molecular target: Stb4 (UniProt P50104); assay: PBM E-score (8-mer binding enrichment) (E-score (-0.5 to 0.5)); higher = stronger / more preferred TF binding; most listed sequences are background and not binding sites; details: protein concentration: 200 nM; construct: GST-DNA-binding domain
In short: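 Full-length yeast transcription factors or their DNA-binding domains, GST-tagged and expressed with PURExpress, were applied at about 100-200 nM to universal all-10-mer Agilent arrays. These arrays had been made double-stranded by primer extension on fresh or once-stripped slides. Detection used fluorescent anti-GST, normalisation used masliner, and E-scores for ungapped eight-base words pooled with reverse complements came from the Universal PBM Analysis Suite.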

Going from CTTCCCCA to CCAATTTA, the “PBM E-score” value rises from -0.178 to 0.0809.

Compared with CCAGTAAC, AACGCCTC is lower in “PBM E-score” value: 0.0754 for the first, -0.151 for the second.

Compared with GGTGTACA, CTAAAGTA is lower in “PBM E-score” value: -0.145 for the first, -0.235 for the second.

Going from GCCCCGAA to CAGCTCTA, the “PBM E-score” value falls from 0.31 to -0.128.

First: CTATGATA
Second: AAGTTCCG
The “PBM E-score” value of the first is lower: -0.0468 for the first, 0.434 for the second.

First: GTGCAGGA
Second: AAACGGGA
The “PBM E-score” value of the first is lower: -0.18 for the first, 0.246 for the second.

Compared with AAAAATCG, AAGCTCCT is lower in “PBM E-score” value: 0.0452 for the first, -0.188 for the second.

Going from ACTTCTTA to TACTGAGA, the “PBM E-score” value falls from -0.0853 to -0.123.

Going from CAGCGCGA to GGTCTCTA, the “PBM E-score” value rises from -0.265 to -0.0978.

First: AGCATAGC
Second: CGCTACCG
The “PBM E-score” value of the first is lower: -0.364 for the first, 0.177 for the second.

Compared with AGCGATCA, GGAGTAAC is higher in “PBM E-score” value: -0.156 for the first, 0.0827 for the second.

Going from GCATCCCA to GGTTGGTA, the “PBM E-score” value rises from -0.0683 to 1e-05.

First: AAAGCAGG
Second: TGCCGGCA
The “PBM E-score” value of the first is lower: 0.047 for the first, 0.296 for the second.

Compared with CATGGGGG, ACGCCAGT is higher in “PBM E-score” value: -0.23 for the first, -0.0635 for the second.

Compared with ACCAACTC, CCAGAAAC is higher in “PBM E-score” value: -0.209 for the first, -0.0188 for the second.

Going from AGTCTAAA to CTTATACC, the “PBM E-score” value rises from -0.0902 to 0.0291.

Going from CTTCCGAC to GGGGCCCC, the “PBM E-score” value falls from 0.457 to 0.0542.

Going from GTTTCGTA to CTTGTGGC, the “PBM E-score” value falls from 0.128 to -0.0925.

Going from ATTATAAT to CACTTAAC, the “PBM E-score” value falls from 0.0674 to -0.105.

First: ACCTCCGT
Second: GTACGTTA
The “PBM E-score” value of the first is higher: 0.0596 for the first, 0.0456 for the second.

Compared with GGGTCTTA, CACGGCAC is higher in “PBM E-score” value: 0.0444 for the first, 0.162 for the second.

First: ACAATCAG
Second: AGTACGAT
The “PBM E-score” value of the first is lower: -0.107 for the first, -0.0788 for the second.

Compared with CGGGGCGA, AACCCAAG is lower in “PBM E-score” value: 0.148 for the first, -0.101 for the second.

Going from CAGTAGGC to TGTACGAA, the “PBM E-score” value rises from -0.298 to -0.0828.

First: CCGCGCGA
Second: GTTATATA
The “PBM E-score” value of the first is higher: 0.0755 for the first, -0.0331 for the second.

Going from CTCGAGAC to ATCAACTC, the “PBM E-score” value falls from -0.0401 to -0.165.

Going from AAGTTGCA to AAGCGGCA, the “PBM E-score” value rises from -0.0963 to 0.133.

First: GAAGCAAA
Second: CACGTCGC
The “PBM E-score” value of the first is lower: -0.131 for the first, -0.0175 for the second.

First: GCAGGAGC
Second: ATCCACAA
The “PBM E-score” value of the first is lower: -0.179 for the first, -0.164 for the second.

First: GAGATATA
Second: ATTCCTTC
The “PBM E-score” value of the first is higher: 0.147 for the first, 0.0813 for the second.

Going from CTATCGGC to CGTTGTGC, the “PBM E-score” value falls from 0.26 to -0.0543.

Compared with AAGGCGAC, ACGGCAGT is higher in “PBM E-score” value: -0.0376 for the first, 0.0924 for the second.

Going from CACACTCG to CAGCTGAC, the “PBM E-score” value falls from 0.183 to -0.021.

Going from CCTTGTAA to CCGCCCGC, the “PBM E-score” value rises from -0.0698 to 0.246.

Compared with ATTATTGC, GATCAGAC is lower in “PBM E-score” value: 0.0604 for the first, -0.18 for the second.

First: AAGCCTCG
Second: TAGATTAA
The “PBM E-score” value of the first is higher: 0.163 for the first, 0.0206 for the second.

Going from CGAGCGTC to CCTTCGAA, the “PBM E-score” value falls from 0.00847 to -0.117.

Going from CCCGGCTC to AGACTCTA, the “PBM E-score” value falls from 0.285 to -0.132.

Going from CCCCTGTA to AACAATCC, the “PBM E-score” value rises from -0.144 to 0.0191.

Compared with CAATCAAA, ACACTAAT is higher in “PBM E-score” value: -0.196 for the first, -0.0952 for the second.

Going from CGGCTGTC to AATACGGC, the “PBM E-score” value falls from 0.264 to 0.0867.

Going from AGTTGTGA to ACGAATAC, the “PBM E-score” value rises from -0.0949 to -0.0867.

Going from GGAAACAA to CCAAACAA, the “PBM E-score” value falls from 0.228 to 0.0125.
